Experimental findings from article PMC4336329 (PLoS ONE, 2015) are described below.

Hit rate of the full screen: of about 310,000 compounds, about 2,200 (0.71%) showed an effect of 50% or more. The effect is printed as a negative number. The list shows a part of the results.

The target in this assay is human ether-à-go-go-related gene (hERG) potassium channel (human, UniProt Q12809). The experiment in a line: primary screen, population patch clamp on CHO cells stably expressing hERG.
Chain of human ether-à-go-go-related gene (hERG) potassium channel (Q12809 whole entry, looked up): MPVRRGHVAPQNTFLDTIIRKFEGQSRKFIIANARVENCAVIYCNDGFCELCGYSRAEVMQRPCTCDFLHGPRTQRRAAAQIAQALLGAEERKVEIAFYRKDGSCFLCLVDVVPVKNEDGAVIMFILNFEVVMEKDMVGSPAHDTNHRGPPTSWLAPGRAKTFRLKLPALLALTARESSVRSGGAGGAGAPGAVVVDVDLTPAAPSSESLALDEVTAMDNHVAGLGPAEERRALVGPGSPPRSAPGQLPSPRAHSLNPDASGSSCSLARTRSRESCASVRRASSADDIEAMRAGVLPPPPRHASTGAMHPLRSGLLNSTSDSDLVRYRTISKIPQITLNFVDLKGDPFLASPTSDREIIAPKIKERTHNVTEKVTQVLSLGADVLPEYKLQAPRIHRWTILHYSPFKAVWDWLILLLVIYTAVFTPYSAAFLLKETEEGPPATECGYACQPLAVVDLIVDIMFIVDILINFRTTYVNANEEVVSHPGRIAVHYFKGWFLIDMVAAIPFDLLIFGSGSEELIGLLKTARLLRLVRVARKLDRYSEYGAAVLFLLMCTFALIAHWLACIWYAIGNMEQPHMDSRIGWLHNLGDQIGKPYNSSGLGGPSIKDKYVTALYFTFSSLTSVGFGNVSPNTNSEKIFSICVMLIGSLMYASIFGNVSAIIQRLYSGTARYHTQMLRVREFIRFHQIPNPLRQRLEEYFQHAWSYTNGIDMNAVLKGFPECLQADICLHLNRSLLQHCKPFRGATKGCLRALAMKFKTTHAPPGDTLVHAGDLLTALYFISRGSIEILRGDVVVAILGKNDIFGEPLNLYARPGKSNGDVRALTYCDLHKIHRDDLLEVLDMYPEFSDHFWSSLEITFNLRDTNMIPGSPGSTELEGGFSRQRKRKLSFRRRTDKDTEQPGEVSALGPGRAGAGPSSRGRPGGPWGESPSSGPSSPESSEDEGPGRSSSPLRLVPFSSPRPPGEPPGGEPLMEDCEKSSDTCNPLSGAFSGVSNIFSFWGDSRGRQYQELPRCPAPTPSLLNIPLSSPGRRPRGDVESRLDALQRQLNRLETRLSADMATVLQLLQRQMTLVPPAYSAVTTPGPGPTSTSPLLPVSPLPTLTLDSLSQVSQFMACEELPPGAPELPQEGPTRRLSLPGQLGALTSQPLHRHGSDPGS
On to `Cc1csc2ncnc(NC3CCN(Cc4ccccc4)CC3)c12`, for which the “hERG current change (%, negative = inhibition) at 1uM” value is listed as -35.4%.
In the case of `Cc1nc(C)c(-c2ccc(SCC(=O)Nc3cccc(F)c3)nn2)s1`, the “hERG current change (%, negative = inhibition) at 1uM” value came to 11.7%.
Consider `Cc1ccc(S(=O)(=O)/N=C(/Nc2cccc3ccccc23)c2ccc(F)cc2)cc1`, for which the “hERG current change (%, negative = inhibition) at 1uM” value is 11.9%.
As to `CC(=O)Nc1c(C(=O)N2CCCCCC2)cnn1-c1ccccc1Cl`, the “hERG current change (%, negative = inhibition) at 1uM” value was 13.4%.
In the case of `Cc1ccnc(NC(=O)c2ccc(S(=O)(=O)N3CCC(C)CC3)cc2)c1`, the “hERG current change (%, negative = inhibition) at 1uM” value stood at 3.14%.
For `O=C(c1cc(Sc2cccc(Cl)c2)nc2ccccc12)N1CCN(c2ccccn2)CC1`, the “hERG current change (%, negative = inhibition) at 1uM” value was found to be 8.49%.
For `CCCN(CC(=O)Nc1ccccc1C)C(=O)c1ccc(N2CCCC2=O)cc1`, the “hERG current change (%, negative = inhibition) at 1uM” value came out at 10.1%.
Turning to `CCCC(C)NC(=O)c1cc(S(=O)(=O)N2CCCCCC2)ccc1OC` (centres unmarked), the “hERG current change (%, negative = inhibition) at 1uM” value is -15%.
`O=C(Nc1nnc(-c2ccccc2)o1)c1cccc(N2C(=O)CCC2=O)c1`: the “hERG current change (%, negative = inhibition) at 1uM” value is reported as 3.4%.
Turning to `CC1CCCN(CCCNC(=O)c2ccc(NC(=O)C3=CSCCO3)cc2)C1` (centres unmarked), the “hERG current change (%, negative = inhibition) at 1uM” value is recorded as 14.5%.
As for `COc1ccc(-c2nnn(CC(=O)NC3CCCc4ccccc43)n2)cc1OC` (centres unmarked), the figure is 16.9%; as for `NNC(=O)C=C1CCN(c2ncc(C(F)(F)F)cc2Cl)CC1`, 8.75%; as for `O=C(CCN1CCCCC1)N=Nc1c(O)[nH]c2ccccc12`, 10.4%.
`CCOc1ccccc1N(CC(=O)OC)S(=O)(=O)c1ccccc1`: the “hERG current change (%, negative = inhibition) at 1uM” value came to 5.24%.
With `CNS(=O)(=O)c1cc(N(C)S(=O)(=O)c2ccc(C)cc2)c(C)cc1C`, the “hERG current change (%, negative = inhibition) at 1uM” value is given as -2.79%.
On to `O=C(COC(=O)C1CC2C=CC1C2)NCCc1ccccc1` (centres unmarked), for which the “hERG current change (%, negative = inhibition) at 1uM” value is reported as 14.9%.
For `CC(CC1CC(C)(C)OC1=O)C(=O)Nc1nncs1` (centres unmarked), the “hERG current change (%, negative = inhibition) at 1uM” value turned out to be 6.85%.
As for `COc1ccc(OCCOC(=O)c2cccc(-n3cnnn3)c2)cc1`, the figure is 2.3%; as for `OCCNc1nc(Nc2ccccc2OC(F)(F)F)nc(N2CCCC2)n1`, 13%.
For `CCn1nc(C)c(CCC(=O)O)c1C`, the “hERG current change (%, negative = inhibition) at 1uM” value amounted to 8.42%.
As for `CCOc1ccc(CCNC(=O)CCS(=O)(=O)c2ccc(OC)cc2)cc1OCC`, the “hERG current change (%, negative = inhibition) at 1uM” value was -0.56%.
The figure for `COc1ccc(S(=O)(=O)Nc2cc(C(=O)NC(C)C)ccc2N2CCOCC2)cc1` is 7.51%; for `Cc1c(N=Nc2c(O)[nH]c(=S)[nH]c2=O)c(=O)n(-c2ccccc2)n1C` it is 12.6%; for `Cc1ccc(-n2cnn(-c3ccc([N+](=O)[O-])cc3[N+](=O)[O-])c2=O)cc1` it is 13%.
As to `CC(NC(=O)CN1C(=O)c2ccccc2C1=O)c1ccccc1` (centres unmarked), the “hERG current change (%, negative = inhibition) at 1uM” value came to 6.37%.
Take `O=C(c1cc(=O)[nH]c2ccccc12)N1CCN(S(=O)(=O)c2ccc3ccccc3c2)CC1`: the “hERG current change (%, negative = inhibition) at 1uM” value is 12.4%.
Turning to `C=CCOc1ccc(/C=C/C(=O)OCC(=O)Nc2c(C)n(C)n(-c3ccccc3)c2=O)cc1`, the “hERG current change (%, negative = inhibition) at 1uM” value is 1.63%.
As for `O=C(COC(=O)c1ncc(Cl)c(Cl)c1Cl)NNC(=O)c1ccccc1`, the figure is 14.6%; as for `Nc1ccc(S(=O)(=O)Nc2ccccn2)cc1`, 14.1%; as for `Cc1cc2c(cc(C(=O)OCC(=O)NCc3ccco3)n2C)s1`, 6.5%.
Turning to `Cc1cc(Cl)ccc1N=c1ssnc1Cl`, the “hERG current change (%, negative = inhibition) at 1uM” value is 13.5%.
As to `Cc1ccc(C(=O)N(Cc2cccs2)C2CCS(=O)(=O)C2)cc1` (centres unmarked), the “hERG current change (%, negative = inhibition) at 1uM” value was 16.6%.
As for `COc1cccc(/C=C2/C(=O)NN(c3ccc(Br)cc3)C2=O)c1O`, the “hERG current change (%, negative = inhibition) at 1uM” value is on record as 12.6%.
Consider `O=C(Nc1cccc(Cl)c1N1CCCC1)c1ccc(Br)o1`, for which the “hERG current change (%, negative = inhibition) at 1uM” value is recorded as -5.81%.
Turning to `COc1cc(CNc2ccc3[nH]c(=O)[nH]c3c2)ccc1OCc1ccc(F)cc1Cl`, the “hERG current change (%, negative = inhibition) at 1uM” value amounted to 5.61%.
As to `CCN(CC)S(=O)(=O)c1ccc2c(c1)nc(CCC(=O)Nc1cccc(C(F)(F)F)c1)n2CC`, the “hERG current change (%, negative = inhibition) at 1uM” value was determined as 10.8%.
As for `O=C(CSc1cn[nH]n1)Nc1ccccc1F`, the “hERG current change (%, negative = inhibition) at 1uM” value is on record as 4.01%.
As for `Cc1occc1C(=O)N1CCN(c2ccccc2)CC1`, the figure is 3.49%; as for `CN1CCN(C(=O)c2ccc(CNS(=O)(=O)c3ccc(F)c(Cl)c3)cc2)CC1`, 2.45%; as for `O=C(NCc1ccco1)C1CCCN(S(=O)(=O)Cc2ccccc2)C1` (centres unmarked), 13.5%.
Turning to `COc1ccc(OC)c(/C=C/C(=O)OCC(=O)Nc2nnc(-c3ccccc3)o2)c1`, the “hERG current change (%, negative = inhibition) at 1uM” value is 7.49%.
The figure for `C=CCNC(=S)N1CCC(Cc2ccccc2)CC1` is 4.99%; for `COc1ccc(C2C(C(=O)C(C)(C)C)=C(O)C(=O)N2Cc2ccccc2)cc1` (centres unmarked) it is 13.1%; for `CC(NC(=O)CSc1nc2c(c(C(F)(F)F)n1)CCc1ccccc1-2)c1ccccc1` (centres unmarked) it is 6%.
The figure for `Cc1cc(=O)[nH]c(SCC(=O)c2ccc3c(c2)NC(=O)CO3)n1` is 8.59%; for `O=C(Oc1ccc(Br)cc1)c1cccnc1` it is 5.97%.
In the case of `O=C(NCc1ccc(Cl)cc1)C1CCCN1C(=O)Nc1ccc(F)cc1` (centres unmarked), the “hERG current change (%, negative = inhibition) at 1uM” value is given as -1.75%.
Take `CCn1c(O)c(/C=C2\C=Nc3ccccc32)sc1=Nc1ccc(C)cc1`: the “hERG current change (%, negative = inhibition) at 1uM” value was determined as 1.23%.
As for `COc1ccccc1N1CCN(C(=O)CCc2c[nH]c3ccccc23)CC1`, the “hERG current change (%, negative = inhibition) at 1uM” value is recorded as -1.67%.
Take `COc1ccc(S(=O)(=O)N(CC(=O)N2CCCCCC2)c2ccccc2OC)cc1`: the “hERG current change (%, negative = inhibition) at 1uM” value was -5.65%.
Take `O=P(COCCOCCOCCOCP(=O)(c1ccccc1)c1ccccc1)(c1ccccc1)c1ccccc1`: the “hERG current change (%, negative = inhibition) at 1uM” value is reported as 5.55%.
As to `O=C(Cc1ccccc1)Nc1ccc(CN2CCOCC2)cc1`, the “hERG current change (%, negative = inhibition) at 1uM” value is recorded as 2.59%.
For `COC(=O)N/N=C\c1ccc(OC(=O)c2ccco2)cc1`, the “hERG current change (%, negative = inhibition) at 1uM” value came out at 8.37%.
Consider `CCn1cc(C2C3=C(CC(C)(C)CC3=O)N(c3ccccc3)C3=C2C(=O)CC(C)(C)C3)c(C)n1`, for which the “hERG current change (%, negative = inhibition) at 1uM” value is given as 9.4%.
As for `Cc1cc(C)cc(NC(=O)NC2CCN(CC(=O)Nc3cccc(Cl)c3C)CC2)c1`, the “hERG current change (%, negative = inhibition) at 1uM” value is recorded as 5.76%.
`CS(=O)(=O)c1ccc(Cl)c(NC(=O)c2cc(S(=O)(=O)N3CCOCC3)ccc2N2CCCC2)c1`: the “hERG current change (%, negative = inhibition) at 1uM” value is listed as -60.2%.
As for `CC1CC(C)CN(CCCNC(=O)Cc2c(C(=O)O)n(C)c3ccccc23)C1` (centres unmarked), the figure is -4.82%.
The figure for `Cc1ccc(S(=O)(=O)N2CCC(C(=O)N3CCC(C(=O)NCc4cccnc4)CC3)CC2)cc1` is 5.95%.
As to `Cc1ccc(S(=O)(=O)NCC(=O)OCc2ccccc2)cc1`, the “hERG current change (%, negative = inhibition) at 1uM” value stood at 10.1%.
As for `O=C(NCC(c1ccco1)N1CCN(c2ccccc2)CC1)c1cccs1` (centres unmarked), the “hERG current change (%, negative = inhibition) at 1uM” value stood at 1.74%.
Consider `CCOc1ccc(C(=O)NCC(=O)OCCCC(=O)c2ccc(F)cc2)cc1OCC`, for which the “hERG current change (%, negative = inhibition) at 1uM” value amounted to 3.6%.
Consider `CCOc1ccc(NC(=S)N2CCN(S(=O)(=O)c3ccc(OC)cc3)CC2)cc1`, for which the “hERG current change (%, negative = inhibition) at 1uM” value was 10.3%.
In the case of `CC(=O)N1CCSc2ccc(S(=O)(=O)NCc3ccc(F)cc3)cc21`, the “hERG current change (%, negative = inhibition) at 1uM” value is recorded as -1.41%.
Turning to `CCOC(=O)C1CCCCN1Cc1cccc(OCc2ccccc2)c1.O=C(O)C(=O)O` (centres unmarked), the “hERG current change (%, negative = inhibition) at 1uM” value stood at 12.5%.
As for `CCOC(=O)N/N=C(\C)c1ccc(OC(F)F)cc1OC(F)F`, the figure is 5.66%; as for `OC1CCN(c2c3c(nc4cc(-c5cccc(F)c5)nn24)CCCC3)CC1`, 4%.
As for `CCSCc1nnc(SCC(=O)c2ccc(OC)cc2)n1C`, the figure is 2.03%.
As for `COCc1nc2c([nH]1)c(=O)n(C)c(=O)n2CC(C)C`, the figure is -5.58%; as for `O=C(Nc1cc([N+](=O)[O-])ccc1N1CCCC1)c1ccccc1`, 2.67%; as for `CCc1ccccc1NC(=O)CSc1nc2c(c(-c3ccco3)c1C#N)CCCC2`, 21.9%.
As for `Cc1c(C(=O)NCCN2CCOCC2)oc2ccccc12`, the “hERG current change (%, negative = inhibition) at 1uM” value turned out to be 9.09%.
Consider `COc1ccc(C2(O)CN(c3ccccc3)C3=[N+]2CCS3)cc1OC.[Br-]` (centres unmarked), for which the “hERG current change (%, negative = inhibition) at 1uM” value amounted to 5.45%.
As to `CCOc1ccc(NC(=S)Nc2ccc3nsnc3c2)cc1`, the “hERG current change (%, negative = inhibition) at 1uM” value was -0.48%.
The figure for `CCN(CC)C(=O)c1sc(N)c(C#N)c1C` is 11.4%.
As for `O=C(O)c1ccc(N=Nc2c(O)[nH]c3cc(Cl)ccc23)cc1`, the figure is 10.6%.
The figure for `CC(=O)c1ccc(NC(=O)CN2CCC(C(=O)c3ccc4c(c3)OCCO4)CC2)cc1` is 1.1%; for `CCN(CC)S(=O)(=O)c1ccc(Cl)c(NC(=O)COc2ccccc2[N+](=O)[O-])c1` it is 7.69%.
In the case of `COc1ccccc1NC(=O)CCS(=O)(=O)c1ccc2c(c1)oc(=O)n2C`, the “hERG current change (%, negative = inhibition) at 1uM” value is listed as 8.69%.
As for `CCn1c(SCc2ccccc2)nnc1-c1cccnc1`, the figure is 10.3%.
In the case of `COc1cc(CCC(=O)NNC(=O)c2cccc(Cl)c2)cc(OC)c1OC`, the “hERG current change (%, negative = inhibition) at 1uM” value came to 12.2%.
Consider `Clc1ccc(OCC#CCN2CCCCCC2)cc1.O=C(O)C(=O)O`, for which the “hERG current change (%, negative = inhibition) at 1uM” value is given as -5.05%.
Regarding `Cc1ccc(Nc2nnns2)cc1C`, the “hERG current change (%, negative = inhibition) at 1uM” value was 15.1%.
`CCOc1ccc(-n2c(SCC(=O)Nc3ccc(OC)cc3)nc3sc4c(c3c2=O)CCN(C)C4)cc1`: the “hERG current change (%, negative = inhibition) at 1uM” value is listed as 16.3%.
For `O=C(CSC1=NCCS1)N1CCCCCC1`, the “hERG current change (%, negative = inhibition) at 1uM” value came out at 7.93%.
Regarding `Cc1ccc(/C=N/Nc2ccc(F)cc2F)s1`, the “hERG current change (%, negative = inhibition) at 1uM” value is 17.2%.
The figure for `COc1ccc(Cc2nnc(SC)[nH]c2=O)cc1` is 19.8%.
On to `O=c1cc(-c2ccccc2)nc2n1Cc1ccccc1-2`, for which the “hERG current change (%, negative = inhibition) at 1uM” value stood at 1.33%.
Turning to `Cc1cc(O)ccc1NC(=O)c1ccccc1`, the “hERG current change (%, negative = inhibition) at 1uM” value is reported as 9.91%.
As for `Cc1ccc(-c2nnn(CC(=O)N(CC(=O)NCc3ccccc3)c3cccc(C)c3C)n2)o1`, the figure is -5.84%.
